# Test results from patent US7619094B2, “Ketoamides with cyclic P4's as inhibitors of NS3 serine protease of hepatitis C virus” (Schering Corporation, priority 2004, dated 2009).
# Target: Recombinant heterodimeric HCV NS3/NS4A protease (strain 1a) (Hepatitis C virus genotype 1a, UniProt P27958)
# Experiment: HCV continuous assay (spectrophotometric HCV NS3/NS4A serine protease inhibition assay)
# Assay type: biochemical, HCV (strain 1a)
# Conditions: Table 2; ranges of Ki* values in HCV continuous assay
row,Compound,Ki
1,C=CCNC(=O)C(=O)C(CCCC)NC(=O)[C@@H]1[C@@H]2[C@H](CN1C(=O)[C@@H](NC(=O)N[C@H](CN1C(=O)CC(C)(C)CC1=O)C(C)(C)C)C1CCCCC1)C2(C)C (some centres unmarked) [Compound 5777],≤ 50 nM
2,C=CCNC(=O)C(=O)C(CCC)NC(=O)[C@@H]1[C@H]2CC(C)(C)O[C@H]2CN1C(=O)[C@@H](NC(=O)N[C@H](CN1CCCCC1=O)C(C)(C)C)C1CCCCC1 (some centres unmarked) [Compound 5778],≤ 50 nM
3,C#CCCC(NC(=O)[C@@H]1[C@H]2CC(C)(C)O[C@H]2CN1C(=O)[C@@H](NC(=O)N[C@H](CN1CCCCC1=O)C(C)(C)C)C1CCCCC1)C(=O)C(=O)NCC=C (some centres unmarked) [Compound 5779],≤ 50 nM
4,C#CCCC(NC(=O)[C@@H]1[C@@H]2[C@H](CN1C(=O)[C@@H](NC(=O)N[C@H](CN1CCCCC1=O)C(C)(C)C)C1(C)CCCCC1)C2(C)C)C(=O)C(=O)NCC=C (some centres unmarked) [Compound 5780],≤ 50 nM
5,C=CCNC(=O)C(=O)C(CCCC)NC(=O)[C@@H]1[C@@H]2[C@H](CN1C(=O)[C@@H](NC(=O)N[C@H](CN1CCCCC1=O)C(C)(C)C)C1(C)CCCCC1)C2(C)C (some centres unmarked) [Compound 5781],≤ 50 nM
6,C=CCNC(=O)C(=O)C(CC1CC1)NC(=O)[C@@H]1[C@@H]2[C@H](CN1C(=O)[C@@H](NC(=O)N[C@H](CN1CCCCC1=O)C(C)(C)C)C1(C)CCCCC1)C2(C)C (some centres unmarked) [Compound 5782],≤ 50 nM
7,C=CCNC(=O)C(=O)C(CCC)NC(=O)[C@@H]1[C@@H]2[C@H](CN1C(=O)[C@@H](NC(=O)N[C@H](CN1CCCCC1=O)C(C)(C)C)C1(C)CCCCC1)C2(C)C (some centres unmarked) [Compound 5783],≤ 50 nM
8,CC1(C)CC(=O)N(C[C@@H](NC(=O)N[C@H](C(=O)N2C[C@H]3[C@@H]([C@H]2C(=O)NC(CC2CCC2)C(=O)C(N)=O)C3(C)C)C2CCCCC2)C(C)(C)C)C(=O)C1 (some centres unmarked) [Compound 5784],≤ 50 nM
9,C#CCCC(NC(=O)[C@@H]1[C@@H]2[C@H](CN1C(=O)[C@@H](NC(=O)N[C@H](CN1C(=O)CC(C)(C)CC1=O)C(C)(C)C)C1CCCCC1)C2(C)C)C(=O)C(=O)NCC=C (some centres unmarked) [Compound 5785],≤ 50 nM
10,CC1(C)CC(=O)N(C[C@@H](NC(=O)N[C@H](C(=O)N2C[C@H]3[C@@H]([C@H]2C(=O)NC(CC2CC2)C(=O)C(N)=O)C3(C)C)C2CCCCC2)C(C)(C)C)C(=O)C1 (some centres unmarked) [Compound 5786],≤ 50 nM
11,C#CCCC(NC(=O)[C@@H]1[C@@H]2[C@H](CN1C(=O)[C@@H](NC(=O)N[C@H](CN1CCCCC1=O)C(C)(C)C)C1Cc3ccccc3C1)C2(C)C)C(=O)C(=O)NCC=C (some centres unmarked) [Compound 5787],≤ 50 nM
12,C=CCNC(=O)C(=O)C(CC1CCC1)NC(=O)[C@@H]1[C@@H]2[C@H](CN1C(=O)[C@@H](NC(=O)N[C@H](CN1C(=O)CC(C)(C)CC1=O)C(C)(C)C)C1CCCCC1)C2(C)C (some centres unmarked) [Compound 5788],≤ 50 nM
13,CCCC(NC(=O)[C@@H]1[C@@H]2[C@H](CN1C(=O)[C@@H](NC(=O)N[C@H](CN1CCCCC1=O)C(C)(C)C)C1Cc3ccccc3C1)C2(C)C)C(=O)C(=O)NC1CC1 (some centres unmarked) [Compound 5789],≤ 50 nM
14,CCCCC(NC(=O)[C@@H]1[C@@H]2[C@H](CN1C(=O)[C@@H](NC(=O)N[C@H](CN1CCCCC1=O)C(C)(C)C)C1(C)CCCCC1)C2(C)C)C(=O)C(=O)NCC (some centres unmarked) [Compound 5790],≤ 50 nM
15,CCCCC(NC(=O)[C@@H]1[C@@H]2[C@H](CN1C(=O)[C@@H](NC(=O)N[C@H](CN1CCCCC1=O)C(C)(C)C)C1Cc3ccccc3C1)C2(C)C)C(=O)C(=O)NCC (some centres unmarked) [Compound 5791],≤ 50 nM
16,CCCC(NC(=O)[C@@H]1[C@@H]2[C@H](CN1C(=O)[C@@H](NC(=O)N[C@H](CN1CCCCC1=O)C(C)(C)C)C1(C)CCCCC1)C2(C)C)C(=O)C(=O)NC1CC1 (some centres unmarked) [Compound 5792],≤ 50 nM
17,C=CCNC(=O)C(=O)C(CC1CC1)NC(=O)[C@@H]1[C@@H]2[C@H](CN1C(=O)[C@@H](NC(=O)N[C@H](CN1C(=O)CC3(CCCC3)CC1=O)C(C)(C)C)C1(C)CCCCC1)C2(C)C (some centres unmarked) [Compound 5793],≤ 50 nM
18,C=CCNC(=O)C(=O)C(CCC)NC(=O)[C@@H]1[C@@H]2[C@H](CN1C(=O)[C@@H](NC(=O)N[C@H](CN1C(=O)CC3(CCCC3)CC1=O)C(C)(C)C)C1(C)CCCCC1)C2(C)C (some centres unmarked) [Compound 5794],≤ 50 nM
19,C=CCNC(=O)C(=O)C(CCCC)NC(=O)[C@@H]1[C@@H]2[C@H](CN1C(=O)[C@@H](NC(=O)N[C@H](CN1C(=O)CC3(CCCC3)CC1=O)C(C)(C)C)C1(C)CCCCC1)C2(C)C (some centres unmarked) [Compound 5795],≤ 50 nM
20,C=CCNC(=O)C(=O)C(CC1CC1)NC(=O)[C@@H]1[C@@H]2[C@H](CN1C(=O)[C@@H](NC(=O)N[C@H](CN1C(=O)CC3(CCCC3)CC1=O)C(C)(C)C)C(C)(C)C)C2(C)C (some centres unmarked) [Compound 5796],≤ 50 nM
21,C=CCNC(=O)C(=O)C(CC1CC1)NC(=O)[C@@H]1[C@@H]2[C@H](CN1C(=O)[C@@H](NC(=O)N[C@H](CN1C(=O)CC3(CCCC3)CC1=O)C(C)(C)C)C1CCCCC1)C2(C)C (some centres unmarked) [Compound 5797],≤ 50 nM

row,Compound,Ki
1,C=CCNC(=O)C(=O)C(CCCC)NC(=O)[C@@H]1[C@@H]2[C@H](CN1C(=O)[C@@H](NC(=O)N[C@H](CN1C(=O)CCCC1=O)C(C)(C)C)C1(C)CCCCC1)C2(C)C (some centres unmarked) [Compound 5798],≤ 50 nM
2,C=CCNC(=O)C(=O)C(CCC)NC(=O)[C@@H]1[C@@H]2[C@H](CN1C(=O)[C@@H](NC(=O)N[C@H](CN1C(=O)CCCC1=O)C(C)(C)C)C1(C)CCCCC1)C2(C)C (some centres unmarked) [Compound 5799],≤ 50 nM
3,C=CCNC(=O)C(=O)C(CC1CC1)NC(=O)[C@@H]1[C@@H]2[C@H](CN1C(=O)[C@@H](NC(=O)N[C@H](CN1C(=O)CCCC1=O)C(C)(C)C)C1(C)CCCCC1)C2(C)C (some centres unmarked) [Compound 5800],≤ 50 nM
4,C=CCNC(=O)C(=O)C(CCC)NC(=O)[C@@H]1[C@@H]2[C@H](CN1C(=O)[C@@H](NC(=O)N[C@H](CN1C(=O)CC(C)(C)CC1=O)C(C)(C)C)C1(C)CCCCC1)C2(C)C (some centres unmarked) [Compound 5801],≤ 50 nM
5,C=CCNC(=O)C(=O)C(CCCC)NC(=O)[C@@H]1[C@@H]2[C@H](CN1C(=O)[C@@H](NC(=O)N[C@H](CN1C(=O)CC(C)(C)CC1=O)C(C)(C)C)C1(C)CCCCC1)C2(C)C (some centres unmarked) [Compound 5802],≤ 50 nM
6,C=CCNC(=O)C(=O)C(CC1CC1)NC(=O)[C@@H]1[C@@H]2[C@H](CN1C(=O)[C@@H](NC(=O)N[C@H](CN1C(=O)CC(C)(C)CC1=O)C(C)(C)C)C1(C)CCCCC1)C2(C)C (some centres unmarked) [Compound 5803],≤ 50 nM
7,C#CCCC(NC(=O)[C@@H]1[C@@H]2[C@H](CN1C(=O)[C@@H](NC(=O)N[C@H](CN1C(=O)CNC1=O)C(C)(C)C)C(C)(C)C)C2(C)C)C(=O)C(=O)NCC=C (some centres unmarked) [Compound 5804],≤ 50 nM
8,C=CCNC(=O)C(=O)C(CCCC)NC(=O)[C@@H]1[C@@H]2[C@H](CN1C(=O)[C@@H](NC(=O)N[C@H](CN1C(=O)CNC1=O)C(C)(C)C)C(C)(C)C)C2(C)C (some centres unmarked) [Compound 5805],≤ 50 nM
9,CCC[C@H](NC(=O)[C@@H]1[C@@H]2[C@H](CN1C(=O)[C@@H](NC(=O)N[C@H](CN1C(=O)CC(C)(C)CC1=O)C(C)(C)C)C(C)(C)C)C2(C)C)C(=O)C(=O)NC1CC1 [Compound 5806],≤ 50 nM
10,CCCCC(NC(=O)[C@@H]1[C@@H]2[C@H](CN1C(=O)[C@@H](NC(=O)N[C@H](CN1C(=O)CC(C)(C)CC1=O)C(C)(C)C)C(C)(C)C)C2(C)C)C(=O)C(=O)NCCC (some centres unmarked) [Compound 5807],≤ 50 nM
11,CCCCC(NC(=O)[C@@H]1[C@@H]2[C@H](CN1C(=O)[C@@H](NC(=O)N[C@H](CN1C(=O)CC(C)(C)CC1=O)C(C)(C)C)C1CCCCC1)C2(C)C)C(=O)C(=O)NCCC (some centres unmarked) [Compound 5808],≤ 50 nM
12,CCCC(NC(=O)[C@@H]1[C@@H]2[C@H](CN1C(=O)[C@@H](NC(=O)N[C@H](CN1C(=O)CC(C)(C)CC1=O)C(C)(C)C)C1(C)CCCCC1)C2(C)C)C(=O)C(=O)NC1CC1 (some centres unmarked) [Compound 5809],≤ 50 nM
13,C=CCNC(=O)C(=O)C(CCCC)NC(=O)[C@@H]1[C@@H]2[C@H](CN1C(=O)[C@@H](NC(=O)N[C@H](CN1C(=O)CC3(CCCC3)CC1=O)C(C)(C)C)C1CCCCC1)C2(C)C (some centres unmarked) [Compound 5810],≤ 50 nM
14,CC(C)(C)[C@H](NC(=O)N[C@H](CN1C(=O)CNC1=O)C(C)(C)C)C(=O)N1C[C@H]2[C@@H]([C@H]1C(=O)NC(CC1CC1)C(=O)C(N)=O)C2(C)C (some centres unmarked) [Compound 5811],≤ 50 nM
15,C=CCNC(=O)C(=O)C(CCCC)NC(=O)[C@@H]1[C@@H]2[C@H](CN1C(=O)[C@@H](NC(=O)N(C)[C@H](CN1C(=O)CNC1=O)C(C)(C)C)C(C)(C)C)C2(C)C (some centres unmarked) [Compound 5813],≤ 50 nM
16,C=CCNC(=O)C(=O)C(CC1CC1)NC(=O)[C@@H]1[C@@H]2[C@H](CN1C(=O)[C@@H](NC(=O)N[C@H](CN1C(=O)CNC1=O)C(C)(C)C)C(C)(C)C)C2(C)C (some centres unmarked) [Compound 5814],≤ 50 nM
17,C=CCNC(=O)C(=O)C(CCC)NC(=O)[C@@H]1[C@@H]2[C@H](CN1C(=O)[C@@H](NC(=O)N[C@H](CN1C(=O)CNC1=O)C(C)(C)C)C1CCCCC1)C2(C)C (some centres unmarked) [Compound 5815],≤ 50 nM
18,C=CCNC(=O)C(=O)C(CC1CC1)NC(=O)[C@@H]1[C@@H]2[C@H](CN1C(=O)[C@@H](NC(=O)N(C)[C@H](CN1C(=O)CNC1=O)C(C)(C)C)C(C)(C)C)C2(C)C (some centres unmarked) [Compound 5816],≤ 50 nM
19,C=CCNC(=O)C(=O)C(CCCC)NC(=O)[C@@H]1[C@@H]2[C@H](CN1C(=O)[C@@H](NC(=O)N[C@H](CN1C(=O)CCC(C)(C)C1=O)C(C)(C)C)C1CCCCC1)C2(C)C (some centres unmarked) [Compound 5817],≤ 50 nM
20,C=CCNC(=O)C(=O)C(CCC)NC(=O)[C@@H]1[C@@H]2[C@H](CN1C(=O)[C@@H](NC(=O)N[C@H](CN1C(=O)CC3(CCCC3)CC1=O)C(C)(C)C)C1CCCCC1)C2(C)C (some centres unmarked) [Compound 5818],≤ 50 nM

# Same assay, conditions: Table 4; Ki* values
row,Compound,Ki
1,C=CCNC(=O)C(=O)C(CCCC)NC(=O)[C@@H]1[C@@H]2[C@H](CN1C(=O)[C@@H](NC(=O)N[C@H](CN1CCCCC1=O)C(C)(C)C)C1(C)CCCCC1)C2(C)C (some centres unmarked) [Compound 5781],9 nM
2,C=CCNC(=O)C(=O)C(CC1CC1)NC(=O)[C@@H]1[C@@H]2[C@H](CN1C(=O)[C@@H](NC(=O)N[C@H](CN1C(=O)CC3(CCCC3)CC1=O)C(C)(C)C)C1(C)CCCCC1)C2(C)C (some centres unmarked) [Compound 5793],11 nM
3,C=CCNC(=O)C(=O)C(CC1CC1)NC(=O)[C@@H]1[C@@H]2[C@H](CN1C(=O)[C@@H](NC(=O)N[C@H](CN1C(=O)CC3(CCCC3)CC1=O)C(C)(C)C)C(C)(C)C)C2(C)C (some centres unmarked) [Compound 5796],3.2 nM
